Assay results as given in PubChem BioAssay AID334 (DTP/NCI, 2004).
Toxic doses and inconclusive results are not listed. A number of entries come with more than one value. The list is limited to them. There may be further records. The values listed for one entry repeat one measurement across runs, samples, wells, individuals or studies.

System: CD2F1 mice, intracerebral P388 leukemia, median survival T/C%
Experiment: NCI In Vivo Anticancer Drug Screen. Data for tumor model P388 Leukemia (intracerebral) in CD2F1 (CDF1) mice
Details: endpoint: median survival time, schedule: Q01DX005 (ip), higher = longer survival
Protocol: The antitumor activity of compounds was measured in mice bearing transplantable tumors. Survival or tumor size were measured and the results are expressed as the measurement made in the treated group (T) divided by the measurement made in the vehicle treated control group (C). The tumor model used in this assay is P388 Leukemia (intracerebral) in CD2F1 (CDF1) mice

Structure (SMILES) | T/C (dose: 16.0 mg/kg/injection, vehicle: saline) | T/C (dose: 100.0 mg/kg/injection, vehicle: Klucel (hydroxypropylcellulose) (HPC))
COS(C)(=O)=O | 105 % of control and 156 % of control | –
COc1cc(C[C@H]2c3cc(OC)c(OC)cc3CCN2C)c(Oc2cc3c(cc2OC)-c2c(OC)c(OC)cc4c2[C@H](C3)N(C)CC4)cc1OC | – | 104 % of control, 107 % of control, 158 % of control
